# According to the supplement of paper PMC8728848:
# This is one part of the list.
# Assays:
# Assay in all cases: glycan array binding signal (z-score within array); higher = stronger binding
# Conditions in all cases: glycan notation: IUPAC condensed, linker removed
# [1] = molecular target: Gal(b1-3)[Neu5Ac(a2-6)]GlcNAc(b1-6)Gal(b1-4)Glc
# In short: (§1)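 From the Consortium for Functional Glycomics database, 3228 arrays were curated, keeping only those whose protein sequence was available. Binding is given as a within-array Z-score averaged across arrays sharing a protein sequence and across linkers. Negative Z-scores can be read as non-binding.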
# [2] = molecular target: Gal(b1-3)[Neu5Ac(b2-6)]GalNAc
# In short: as §1
# Gal(b1-4)Gal = molecular target: Gal(b1-4)Gal
# In short: as §1
# [3] = molecular target: Gal(b1-4)GalNAc(a1-3)[Fuc(a1-2)]Gal(b1-4)GlcNAc
# In short: as §1
# [4] = molecular target: Gal(b1-4)GalNAc(b1-3)[Fuc(a1-2)]Gal(b1-4)GlcNAc
# In short: as §1
# Gal(b1-4)Glc = molecular target: Gal(b1-4)Glc
# In short: as §1
# Gal(b1-4)Glc6S = molecular target: Gal(b1-4)Glc6S
# In short: as §1
# Gal(b1-4)GlcNAc = molecular target: Gal(b1-4)GlcNAc
# In short: as §1
# [5] = molecular target: Gal(b1-4)GlcNAc(a1-6)Gal(b1-4)GlcNAc
# In short: as §1
# Gal(b1-4)GlcNAc(b1-2)Man = molecular target: Gal(b1-4)GlcNAc(b1-2)Man
# In short: as §1
# [6] = molecular target: Gal(b1-4)GlcNAc(b1-2)Man(a1-3)Man(b1-4)GlcNAc(b1-4)GlcNAc
# In short: as §1
# [7] = molecular target: Gal(b1-4)GlcNAc(b1-2)Man(a1-3)[Gal(b1-4)GlcNAc(b1-2)Man(a1-6)]Man(b1-4)GlcNAc(b1-4)GlcNAc
# In short: as §1
# [8] = molecular target: Gal(b1-4)GlcNAc(b1-2)Man(a1-3)[Gal(b1-4)GlcNAc(b1-2)Man(a1-6)]Man(b1-4)GlcNAc(b1-4)[Fuc(a1-6)]GlcNAc
# In short: as §1
# [9] = molecular target: Gal(b1-4)GlcNAc(b1-2)Man(a1-3)[Gal(b1-4)GlcNAc(b1-2)Man(a1-6)][Gal(b1-4)GlcNAc(b1-4)]Man(b1-4)GlcNAc(b1-4)[Fuc(a1-6)]GlcNAc
# In short: as §1
# [10] = molecular target: Gal(b1-4)GlcNAc(b1-2)Man(a1-3)[Gal(b1-4)GlcNAc(b1-2)Man(a1-6)][GlcNAc(b1-4)]Man(b1-4)GlcNAc(b1-4)[Fuc(a1-6)]GlcNAc
# In short: as §1
# [11] = molecular target: Gal(b1-4)GlcNAc(b1-2)Man(a1-3)[Gal(b1-4)GlcNAc(b1-2)][GlcNAc(b1-4)]Man(b1-4)GlcNAc(b1-4)GlcNAc
# In short: as §1
# [12] = molecular target: Gal(b1-4)GlcNAc(b1-2)Man(a1-3)[GlcNAc(b1-2)Man(a1-6)]Man(b1-4)GlcNAc(b1-4)GlcNAc
# In short: as §1
# [13] = molecular target: Gal(b1-4)GlcNAc(b1-2)Man(a1-3)[GlcNAc(b1-4)][Gal(b1-4)GlcNAc(b1-2)Man(a1-6)]Man(b1-4)GlcNAc(b1-4)GlcNAc
# In short: as §1
# [14] = molecular target: Gal(b1-4)GlcNAc(b1-2)Man(a1-3)[Man(a1-6)]Man(b1-4)GlcNAc(b1-4)GlcNAc
# In short: as §1
# [15] = molecular target: Gal(b1-4)GlcNAc(b1-2)Man(a1-6)Man(b1-4)GlcNAc(b1-4)GlcNAc
# In short: as §1
# [16] = molecular target: Gal(b1-4)GlcNAc(b1-2)Man(a1-6)[GlcNAc(b1-2)Man(a1-3)]Man(b1-4)GlcNAc(b1-4)GlcNAc
# In short: as §1
# [17] = molecular target: Gal(b1-4)GlcNAc(b1-2)Man(a1-6)[Man(a1-3)]Man(b1-4)GlcNAc(b1-4)GlcNAc
# In short: as §1
# [18] = molecular target: Gal(b1-4)GlcNAc(b1-2)[Gal(b1-4)GlcNAc(b1-4)]Man(a1-3)[Gal(b1-4)GlcNAc(b1-2)Man(a1-6)]Man(b1-4)GlcNAc(b1-4)GlcNAc
# In short: as §1
# [19] = molecular target: Gal(b1-4)GlcNAc(b1-2)[Gal(b1-4)GlcNAc(b1-4)]Man(a1-3)[Gal(b1-4)GlcNAc(b1-2)[Gal(b1-4)GlcNAc(b1-6)]Man(a1-6)]Man(b1-4)GlcNAc(b1-4)GlcNAc
# In short: as §1
# [20] = molecular target: Gal(b1-4)GlcNAc(b1-2)[Gal(b1-4)GlcNAc(b1-4)]Man(a1-3)[GlcNAc(b1-4)][Gal(b1-4)GlcNAc(b1-2)Man(a1-6)]Man(b1-4)GlcNAc(b1-4)GlcNAc
# In short: as §1
# [21] = molecular target: Gal(b1-4)GlcNAc(b1-2)[Gal(b1-4)GlcNAc(b1-4)]Man(a1-3)[GlcNAc(b1-4)][Gal(b1-4)GlcNAc(b1-2)[Gal(b1-4)GlcNAc(b1-6)]Man(a1-6)]Man(b1-4)GlcNAc(b1-4)GlcNAc
# In short: as §1
# [22] = molecular target: Gal(b1-4)GlcNAc(b1-2)[Gal(b1-4)GlcNAc(b1-6)]Man(a1-6)[Gal(b1-4)GlcNAc(b1-2)Man(a1-3)]Man(b1-4)GlcNAc(b1-4)GlcNAc
# In short: as §1
# [23] = molecular target: Gal(b1-4)GlcNAc(b1-2)[Gal(b1-4)GlcNAc(b1-6)]Man(a1-6)[Gal(b1-4)GlcNAc(b1-2)Man(a1-3)]Man(b1-4)GlcNAc(b1-4)[Fuc(a1-6)]GlcNAc
# In short: as §1
# [24] = molecular target: Gal(b1-4)GlcNAc(b1-2)[Gal(b1-4)GlcNAc(b1-6)]Man(a1-6)[GlcNAc(b1-4)][Gal(b1-4)GlcNAc(b1-2)Man(a1-3)]Man(b1-4)GlcNAc(b1-4)GlcNAc
# In short: as §1
# [25] = molecular target: Gal(b1-4)GlcNAc(b1-2)[Gal(b1-4)GlcNAc(b1-6)]Man(a1-6)[GlcNAc(b1-4)][Gal(b1-4)GlcNAc(b1-2)[Gal(b1-4)GlcNAc(b1-4)]Man(a1-3)]Man(b1-4)GlcNAc(b1-4)[Fuc(a1-6)]GlcNAc
# In short: as §1
# [26] = molecular target: Gal(b1-4)GlcNAc(b1-3)Gal(b1-3)GalNAc
# In short: as §1
# [27] = molecular target: Gal(b1-4)GlcNAc(b1-3)Gal(b1-3)GlcNAc
# In short: as §1
# [28] = molecular target: Gal(b1-4)GlcNAc(b1-3)Gal(b1-4)Glc
# In short: as §1
# [29] = molecular target: Gal(b1-4)GlcNAc(b1-3)Gal(b1-4)GlcNAc
# In short: as §1
# [30] = molecular target: Gal(b1-4)GlcNAc(b1-3)Gal(b1-4)GlcNAc(b1-2)Man(a1-3)[Gal(b1-4)GlcNAc(b1-3)Gal(b1-4)GlcNAc(b1-2)Man(a1-6)]Man(b1-4)GlcNAc(b1-4)GlcNAc
# In short: as §1
# [31] = molecular target: Gal(b1-4)GlcNAc(b1-3)Gal(b1-4)GlcNAc(b1-2)Man(a1-3)[Gal(b1-4)GlcNAc(b1-3)Gal(b1-4)GlcNAc(b1-2)Man(a1-6)]Man(b1-4)GlcNAc(b1-4)[Fuc(a1-6)]GlcNAc
# In short: as §1
# [32] = molecular target: Gal(b1-4)GlcNAc(b1-3)Gal(b1-4)GlcNAc(b1-2)[Gal(b1-4)GlcNAc(b1-3)Gal(b1-4)GlcNAc(b1-6)]Man(a1-6)[Gal(b1-4)GlcNAc(b1-3)Gal(b1-4)GlcNAc(b1-2)Man(a1-3)]Man(b1-4)GlcNAc(b1-4)GlcNAc
# In short: as §1
# [33] = molecular target: Gal(b1-4)GlcNAc(b1-3)Gal(b1-4)GlcNAc(b1-2)[Gal(b1-4)GlcNAc(b1-3)Gal(b1-4)GlcNAc(b1-6)]Man(a1-6)[Gal(b1-4)GlcNAc(b1-3)Gal(b1-4)GlcNAc(b1-2)Man(a1-3)]Man(b1-4)GlcNAc(b1-4)[Fuc(a1-6)]GlcNAc
# In short: as §1
binder,measurement,setting,value
PpFlo2 (Pichia pastoris) (protein) MGSSHHHHHHSSGLVPRGSHMDDSGNGDNSDTAYGCDITTNAVDGFDATIYQYNANDLRLIRDPTFMSTGYLGRNVLNKISGVTVPGFNIWNPSSRTATVYGVKNVNYYNMVLELKGYFKADVSGDYKLTLSHIDDSSMLFFGKETAFKCCDAGSIPLNEAPTDYSLFTIKPSNQVNSEVISATQYLEAGKYYPVRIVFVNALERARFDFKLTIPSGAVLDDFQNYIYQFGDLDENSCHE,glycan array binding signal (z-score),[1],-0.357
same,glycan array binding signal (z-score),[2],-0.298
same,glycan array binding signal (z-score),Gal(b1-4)Gal,-0.302
same,glycan array binding signal (z-score),[3],-0.294
same,glycan array binding signal (z-score),[4],-0.302
same,glycan array binding signal (z-score),Gal(b1-4)Glc,-0.237
same,glycan array binding signal (z-score),Gal(b1-4)Glc6S,-0.296
same,glycan array binding signal (z-score),Gal(b1-4)GlcNAc,-0.172
same,glycan array binding signal (z-score),[5],-0.273
same,glycan array binding signal (z-score),Gal(b1-4)GlcNAc(b1-2)Man,-0.299
same,glycan array binding signal (z-score),[6],-0.282
same,glycan array binding signal (z-score),[7],-0.256
same,glycan array binding signal (z-score),[8],-0.292
same,glycan array binding signal (z-score),[9],-0.267
same,glycan array binding signal (z-score),[10],-0.272
same,glycan array binding signal (z-score),[11],-0.344
same,glycan array binding signal (z-score),[12],1.04
same,glycan array binding signal (z-score),[13],-0.267
same,glycan array binding signal (z-score),[14],-0.273
same,glycan array binding signal (z-score),[15],-0.283
same,glycan array binding signal (z-score),[16],2.26
same,glycan array binding signal (z-score),[17],-0.155
same,glycan array binding signal (z-score),[18],-0.138
same,glycan array binding signal (z-score),[19],-0.241
same,glycan array binding signal (z-score),[20],-0.3
same,glycan array binding signal (z-score),[21],-0.269
same,glycan array binding signal (z-score),[22],-0.288
same,glycan array binding signal (z-score),[23],-0.269
same,glycan array binding signal (z-score),[24],-0.297
same,glycan array binding signal (z-score),[25],-0.275
same,glycan array binding signal (z-score),[26],-0.036
same,glycan array binding signal (z-score),[27],0.191
same,glycan array binding signal (z-score),[28],-0.147
same,glycan array binding signal (z-score),[29],0.028
same,glycan array binding signal (z-score),[30],-0.255
same,glycan array binding signal (z-score),[31],-0.25
same,glycan array binding signal (z-score),[32],-0.247
same,glycan array binding signal (z-score),[33],-0.225
